Assay results reported in PubChem BioAssay (Tox21).
The shares of active, inactive and inconclusive entries below differ from those in the screen. For part of these data: A potency beside an inconclusive call is a rough fit, not a confirmed value. Active and inactive are the calls of the source. Unless noted, calls follow the shape of the dose curve; as a rule, active = well fitted curve in the direction sought with a large enough effect in the repeat runs; inconclusive = weak or mixed curves; inactive = no such curve, though single readings can be large; an effect the other way counts as inactive or inconclusive.

Columns and labels:
[1] = target: Peroxisome proliferator-activated receptor gamma (Homo sapiens) (UniProt P37231); test: qHTS assay to identify small molecule antagonists of the peroxisome proliferator-activated receptor gamma (PPARg) signaling pathway (AID 743191; calls by dose curve; also: nearly all actives have a fitted effect of over 30% in size; also: potency is read from the fitted curve at half-maximal effect; as to ratio activity, negative = inhibition: % is scaled to controls: 0 for no effect and ±100 for the full control effect); conditions: HEK293H PPARg-UAS-bla, beta-lactamase ratio, antagonist, 17 h
UniProt P37231, sequence (P37231 whole entry, looked up): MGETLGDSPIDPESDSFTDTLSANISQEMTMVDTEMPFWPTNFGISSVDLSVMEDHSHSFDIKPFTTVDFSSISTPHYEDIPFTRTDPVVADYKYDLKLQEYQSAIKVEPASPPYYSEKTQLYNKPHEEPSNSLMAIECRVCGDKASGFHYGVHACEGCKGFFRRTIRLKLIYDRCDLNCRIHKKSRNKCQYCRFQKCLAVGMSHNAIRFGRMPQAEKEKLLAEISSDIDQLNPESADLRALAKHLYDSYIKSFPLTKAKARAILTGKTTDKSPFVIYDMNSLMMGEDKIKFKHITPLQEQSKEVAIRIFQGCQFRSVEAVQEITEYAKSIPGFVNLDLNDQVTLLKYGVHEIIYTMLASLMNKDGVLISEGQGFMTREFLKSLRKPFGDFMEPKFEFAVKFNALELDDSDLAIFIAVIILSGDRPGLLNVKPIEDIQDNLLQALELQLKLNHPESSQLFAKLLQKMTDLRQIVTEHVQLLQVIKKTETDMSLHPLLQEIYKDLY
Outline: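 GeneBLAzer PPARg UAS-bla HEK293H cells, 5 h post-plating, exposed to compounds 17 h at 37C. LiveBLAzer B/G FRET substrate added for 1 h at room temperature; beta-lactamase reporter read by fluorescence intensity.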

[2] = qHTS assay to identify small molecule antagonists of the peroxisome proliferator-activated receptor gamma (PPARg) signaling pathway - cell viability counter screen (AID 743194); conditions: PPARg-bla HEK293H viability, CellTiter-Glo luminescence, 17 h; Potency: co-treated with 50 nM rosiglitazone unless noted; activity change, negative = cytotoxicity: at 62.6 µM (top of the series), co-treated with 50 nM rosiglitazone unless noted; also: nearly all actives have a fitted effect of over 55% in size; also: potency is read from the fitted curve at half-maximal effect
Outline: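 Cytotoxicity counter screen in PPARg-bla HEK293H cells, same wells as reporter assay. Compounds plus 50 nM rosiglitazone (final) for 17 h at 37 C, then viability read by CellTiter-Glo luminescence.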

[3] = qHTS assay for small molecule agonists of the antioxidant response element (ARE) signaling pathway (AID 743202; active = well fitted activation curve with a large enough effect in the signal ratio in the repeat runs, not every such curve was filed as active; inconclusive = weak or mixed curves, or effect the other way; inactive = no such curve, though single readings can be large or run the other way; the % refers to the signal ratio; also: potency is read from the fitted curve at half-maximal effect); conditions: HepG2 ARE-bla reporter, beta-lactamase FRET, 16 h; activation: at 73.3 µM (top of the series) unless noted
Outline: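 HepG2 ARE-bla reporter line, 2,000 cells/well; 5 h preincubation 37 C/5% CO2; compound (DMSO) 16 h 37 C; B/G FRET substrate 2 h RT; fluorescence intensity.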

[4] = qHTS assay for small molecule agonists of the antioxidant response element (ARE) signaling pathway - cell viability counter screen (AID 743203; calls by dose curve; also: nearly all actives have a fitted effect of over 55% in size; also: potency is read from the fitted curve at half-maximal effect)
Outline: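 Parallel cytotoxicity read-out for the ARE-bla screen: HepG2 reporter cells, 16 hrs with compounds, then CellTiter-Glo luminescence.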

[5] = qHTS assay for small molecule activators of the heat shock response signaling pathway - cell viability counter screen (AID 743209); conditions: HSE-bla HeLa viability, CellTiter-Glo luminescence, 5 h; activity change, negative = cytotoxicity: at 62.6 µM (top of the series) unless noted; also: potency is read from the fitted curve at half-maximal effect; nearly all actives have a fitted effect of over 50% in size
Outline: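 To flag cytotoxic compounds, HSE-bla HeLa cells plated at 1500 cells/well were dosed for 5 h at 37 C, followed by the reporter FRET read and then CellTiter-Glo, with luminescence recorded 30 min after reagent addition.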

[6] = qHTS assay for small molecule activators of the heat shock response signaling pathway (AID 743210; active = well fitted activation curve with a large enough effect in the signal ratio in the repeat runs, with a control signal flat, not every such curve was filed as active; inconclusive = weak or mixed curves; the % refers to the signal ratio; also: potency is read from the fitted curve at half-maximal effect); conditions: HeLa HSE-bla reporter, beta-lactamase ratio, 5 h; activation: at 62.6 µM (top of the series)
Outline: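 Beta-lactamase reporter read-out: FRET substrate fluorescence after 2.5 h at RT, following 5 h compound treatment at 37 C of HeLa cells carrying HSE-driven bla reporter; quantitative HTS format.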

[7] = qHTS assay to identify small molecule agonists of the peroxisome proliferator-activated receptor delta (PPARd) signaling pathway - cell viability counter screen (AID 743211); conditions: PPARd-bla HEK293H viability, CellTiter-Glo luminescence, 17 h; activity change, negative = cytotoxicity: at 62.6 µM (top of the series) unless noted; also: potency is read from the fitted curve at half-maximal effect; nearly all actives have a fitted effect of over 55% in size
Outline: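 qHTS cell viability: PPARd-bla HEK293H; 17 h cpd, 37C; CellTiter-Glo, luminescence at 30 min RT.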

[8] = qHTS assay to identify small molecule antagonists of the farnesoid-X-receptor (FXR) signaling pathway - cell viability counter screen (AID 743221; active = well fitted cell-killing curve with a large enough effect in the repeat runs, not every such curve was filed as active; inconclusive = weak or mixed curves, or effect the other way; inactive = no such curve, though single readings can be large or run the other way; also: potency is read from the fitted curve at half-maximal effect; nearly all actives have a fitted effect of over 50% in size); conditions: FXR-bla HEK293T viability, CellTiter-Glo luminescence, 16 h; activity change, negative = cytotoxicity: at 62.6 µM (top of the series) unless noted
Outline: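 After a 5 h settling period, FXR-bla HEK 293T cells receive compound and chenodeoxycholic acid (50 uM final) and incubate 16 h at 37 C; CellTiter-Glo luminescence, read after 30 min at room temperature, reports cell viability.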

[9] = qHTS assay to identify small molecule agonists of the vitamin D receptor (VDR) signaling pathway - cell viability counter screen (AID 743224); also: potency is read from the fitted curve at half-maximal effect; nearly all actives have a fitted effect of over 50% in size
Outline: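 Counter screen for cytotoxicity: VDR-bla cells at 2,000 cells/well, 16 h compound exposure, then CellTiter-Glo luminescence after the beta-lactamase measurement.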

[10] = qHTS assay to identify small molecule antagonists of the vitamin D receptor (VDR) signaling pathway - cell viability counter screen (AID 743225); conditions: VDR-bla HEK293T viability, CellTiter-Glo luminescence, 16 h; viability change, negative = cytotoxic: at 61 µM (top of the series) unless noted; also: potency is read from the fitted curve at half-maximal effect; nearly all actives have a fitted effect of over 50% in size
Outline: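 Parallel cytotoxicity test: VDR-UAS-bla HEK 293T, 3 nM (final) 1-alpha,25-dihydroxyvitamin D3 with test compound, 16 h, 37C. Endpoint is CellTiter-Glo luminescence in the same wells.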

[11] = qHTS assay to identify small molecule agonists of the endoplasmic reticulum stress response signaling pathway (AID 1159516; active = well fitted activation curve with a large enough effect in the signal ratio in the repeat runs, not every such curve was filed as active; inconclusive = weak or mixed curves, or effect the other way; the % refers to the signal ratio; also: potency is read from the fitted curve at half-maximal effect); conditions: ESRE-bla HeLa, ER stress beta-lactamase reporter, 5 h; activation: at 61 µM (top of the series) unless noted
Outline: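 For this screen, HeLa cells stably carrying beta-lactamase under the ER stress response element received test compounds, positive controls or DMSO for 5 hr at 37 C; B/G FRET substrate was then added and dual-wavelength emission recorded.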

[12] = target: Vitamin D3 receptor (Homo sapiens) (UniProt P11473); test: qHTS assay to identify small molecule antagonists of the vitamin D receptor (VDR) signaling pathway (AID 743223; active = well fitted inhibition curve with a large enough effect in the signal ratio in the repeat runs, not every such curve was filed as active; inconclusive = weak or mixed curves, or effect the other way; inactive = no such curve, though single readings can be large or run the other way; the % refers to the signal ratio; also: potency is read from the fitted curve at half-maximal effect; as to activity change, negative = inhibition: % is scaled to controls: 0 for no effect and ±100 for the full control effect); conditions: VDR-UAS-bla HEK293T, beta-lactamase FRET ratio, 16 h; activity change, negative = inhibition: at 61 µM (top of the series) unless noted
UniProt P11473, sequence (P11473 whole entry, looked up): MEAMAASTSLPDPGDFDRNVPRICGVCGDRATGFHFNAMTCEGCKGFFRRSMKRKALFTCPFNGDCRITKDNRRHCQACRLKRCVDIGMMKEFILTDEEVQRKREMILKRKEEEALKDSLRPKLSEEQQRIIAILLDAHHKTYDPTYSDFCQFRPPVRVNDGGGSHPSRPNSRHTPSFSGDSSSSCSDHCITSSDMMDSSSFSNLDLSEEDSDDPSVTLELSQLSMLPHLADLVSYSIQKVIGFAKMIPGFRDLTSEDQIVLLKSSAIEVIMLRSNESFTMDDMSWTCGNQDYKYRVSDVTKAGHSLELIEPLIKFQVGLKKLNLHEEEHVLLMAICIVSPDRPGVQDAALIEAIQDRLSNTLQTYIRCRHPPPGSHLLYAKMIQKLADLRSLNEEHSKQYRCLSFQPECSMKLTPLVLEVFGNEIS
Outline: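 Reporter line VDR-bla; stimulus 1alpha,25-(OH)2 vitamin D3, 3 nM final; compound co-addition, 16 h 37C/5% CO2; LiveBLAzer B/G substrate 2 h RT; fluorescence intensity.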

[13] = qHTS assay to identify small molecule agonists of the farnesoid-X-receptor (FXR) signaling pathway - cell viability counter screen (AID 743218); conditions: FXR-bla HEK293T viability, CellTiter-Glo luminescence, 16 h; viability change, negative = cytotoxic: at 62.6 µM (top of the series) unless noted; also: nearly all actives have a fitted effect of over 45% in size; also: potency is read from the fitted curve at half-maximal effect
Outline: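 Same-well cytotoxicity check on FXR-UAS-bla HEK 293T cells: 5 h attachment, 16 h compound at 37 C, CellTiter-Glo luminescence read at room temperature after 30 min.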

[14] = target: Vitamin D3 receptor (Homo sapiens) (UniProt P11473); test: qHTS assay to identify small molecule agonists of the vitamin D receptor (VDR) signaling pathway (AID 743222; calls by dose curve; also: % is scaled to controls: 0 for no effect and ±100 for the full control effect); conditions: HEK293T VDR-UAS-bla, beta-lactamase FRET ratio, 16 h; activation: at 63.5 µM (top of the series) unless noted
Outline: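 Using LiveBLAzer B/G FRET detection, agonism was scored in VDR-bla cells exposed overnight (16 h, 37C) to DMSO-dissolved compounds; substrate incubation was 2 h at room temperature.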

[15] = qHTS assay to identify small molecule antagonists of the peroxisome proliferator-activated receptor delta (PPARd) signaling pathway - cell viability counter screen (AID 743213); conditions: PPARd-bla HEK293H viability, CellTiter-Glo luminescence, 17 h; viability change, negative = cytotoxic: at 62 µM (top of the series) unless noted; also: nearly all actives have a fitted effect of over 50% in size; also: potency is read from the fitted curve at half-maximal effect
Outline: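 PPARd-bla HEK293H cells (3000/well) got compound plus 300 nM L165041 agonist for 17 h at 37 C. Viability in the same wells came from CellTiter-Glo luminescence after 30 min at room temperature.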

[16] = target: Peroxisome proliferator-activated receptor delta (Homo sapiens) (UniProt Q03181); test: qHTS assay to identify small molecule agonists of the peroxisome proliferator-activated receptor delta (PPARd) signaling pathway (AID 743212; calls by dose curve; also: potency is read from the fitted curve at half-maximal effect); conditions: HEK293H PPARd-UAS-bla, beta-lactamase FRET ratio, 17 h; activation: at 62.6 µM (top of the series) unless noted
UniProt Q03181, sequence (Q03181 whole entry, looked up): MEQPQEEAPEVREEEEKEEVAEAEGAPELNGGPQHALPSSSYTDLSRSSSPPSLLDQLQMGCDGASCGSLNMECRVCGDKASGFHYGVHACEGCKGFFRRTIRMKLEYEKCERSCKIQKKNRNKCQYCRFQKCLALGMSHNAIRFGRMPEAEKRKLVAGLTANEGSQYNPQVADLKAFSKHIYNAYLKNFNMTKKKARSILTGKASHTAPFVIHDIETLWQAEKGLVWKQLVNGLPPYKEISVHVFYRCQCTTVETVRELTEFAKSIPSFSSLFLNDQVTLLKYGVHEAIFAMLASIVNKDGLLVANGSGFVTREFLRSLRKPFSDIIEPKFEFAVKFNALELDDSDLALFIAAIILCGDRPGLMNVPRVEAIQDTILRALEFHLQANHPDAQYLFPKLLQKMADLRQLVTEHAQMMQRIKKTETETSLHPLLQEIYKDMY
Outline: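 Read-out: beta-lactamase FRET fluorescence after 2 h room-temperature incubation with LiveBLAzer B/G substrate. Cells were HEK293H carrying a UAS-bla reporter for PPARd, treated at 37 C with DMSO-dissolved compounds.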

[17] = target: Bile acid receptor (Homo sapiens) (UniProt Q96RI1); test: qHTS assay to identify small molecule antagonists of the farnesoid-X-receptor (FXR) signaling pathway (AID 743217; active = well fitted inhibition curve with a large enough effect in the signal ratio in the repeat runs, not every such curve was filed as active; inconclusive = weak or mixed curves, or effect the other way; inactive = no such curve, though single readings can be large or run the other way; the % refers to the signal ratio; also: % is scaled to controls: 0 for no effect and ±100 for the full control effect); conditions: HEK293T FXR-UAS-bla, beta-lactamase ratio, CDCA-stimulated, 16 h; activity change, negative = inhibition: at 62.6 µM (top of the series) unless noted
UniProt Q96RI1, sequence (Q96RI1 whole entry, looked up): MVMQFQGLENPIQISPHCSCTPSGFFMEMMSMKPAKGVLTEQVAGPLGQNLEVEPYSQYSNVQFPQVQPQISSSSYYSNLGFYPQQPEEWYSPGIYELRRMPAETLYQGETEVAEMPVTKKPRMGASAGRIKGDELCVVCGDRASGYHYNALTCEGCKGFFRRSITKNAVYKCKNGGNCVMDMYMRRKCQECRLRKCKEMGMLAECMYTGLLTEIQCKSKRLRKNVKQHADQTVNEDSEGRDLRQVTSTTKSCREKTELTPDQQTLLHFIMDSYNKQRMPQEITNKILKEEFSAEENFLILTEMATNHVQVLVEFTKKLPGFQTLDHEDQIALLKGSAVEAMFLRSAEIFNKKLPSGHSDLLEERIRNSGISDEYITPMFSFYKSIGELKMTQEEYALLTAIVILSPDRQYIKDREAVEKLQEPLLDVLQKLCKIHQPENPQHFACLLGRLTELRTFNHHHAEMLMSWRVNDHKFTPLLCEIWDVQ
Outline: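 Quantitative HTS, beta-lactamase reporter format: FXR-UAS-bla HEK 293T cells co-treated 16 h at 37 °C with compounds and 50 uM final chenodeoxycholic acid, then read by B/G FRET fluorescence.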

[18] = ratio activity, negative = inhibition: at 62.6 µM (top of the series) unless noted
Tags tell the direction and shape of the fitted curve or compound fluorescence and quenching.

CC(C)(C)c1cc([N+](=O)[O-])cc([N+](=O)[O-])c1O
Potency [1, 18]: inconclusive: 6.15 µM [full curve] | Potency [2]: active: 0.435 µM | Potency [3]: inconclusive: 30.5 µM [rising, full curve] | Potency [4]: inconclusive: 0.384 µM [cytotoxic, full curve] | Potency [5]: inconclusive: 5.48 µM [cytotoxic, partial curve, poor fit] | Potency [6]: inconclusive: 0.388 µM [falling, full curve] | Potency [7]: inconclusive: 38.8 µM [cytotoxic, partial curve, poor fit] | Potency [8]: inconclusive: 48.9 µM [falling, single point] | Potency [9]: inconclusive: 2.75 µM [cytotoxic, full curve] | Potency [10]: inconclusive: 0.615 µM [cytotoxic, full curve, poor fit] | Potency [11]: inconclusive: 0.869 µM

O=[N+]([O-])c1ccc(Oc2ccc(Cl)cc2Cl)cc1
ratio activity, negative = inhibition ([1]; at 62.6 µM (top of the series)): inactive: 10.6% | ratio activity, negative = inhibition [1, 18]: inconclusive: 6.93% [at 81.1 µM] | activity change, negative = inhibition [12]: inconclusive: 4.55% [at 78.8 µM] | Potency [10]: inconclusive: 54.9 µM [rising, single point] | Potency [11]: inactive

CCCN(CCC)N=O
ratio activity, negative = inhibition ([1]; at 62.6 µM (top of the series)): inactive: 0.14% | ratio activity, negative = inhibition [1, 18]: inconclusive: 0.0924% | Potency [13]: inactive | Potency [14]: inactive | Potency [10]: inconclusive: 19.2 µM [rising, full curve, poor fit] | Potency [11]: inactive

Nc1ccc(Cc2ccc(N)c(Cl)c2)cc1Cl
Potency [1, 18]: inconclusive: 33.5 µM [rising, partial curve, poor fit] | Potency [2]: inconclusive: 66.8 µM [cytotoxic, single point] | Potency [3]: inconclusive: 59.1 µM [falling, single point] | Potency [4]: inconclusive: 66.3 µM [cytotoxic, single point] | Potency [5]: inconclusive: 53.1 µM [cytotoxic, single point] | Potency [6]: inconclusive: 42.2 µM | Potency [7]: inconclusive: 59.6 µM [cytotoxic] | Potency [15]: inconclusive: 53.1 µM [cytotoxic, single point] | Potency [13]: inconclusive: 59.6 µM [cytotoxic, single point] | activation [14]: inconclusive: -33.4% | Potency [12]: inconclusive: 59.6 µM [rising, single point] | Potency [9]: inconclusive: 53.1 µM [cytotoxic, single point] | Potency [10]: inconclusive: 59.6 µM [cytotoxic, single point] | Potency [11]: inconclusive: 16.8 µM [inhibitor, partial curve, poor fit]

CN1[C@@H]2CC[C@H]1CC(OC(=O)c1cc(Cl)cc(Cl)c1)C2 (stereo partly drawn)
Potency [1, 18]: inactive | Potency [2]: inconclusive: 21.1 µM [cytotoxic, partial curve, poor fit] | Potency [3]: inconclusive: 23.7 µM | Potency [4]: inconclusive: 26.6 µM [cytotoxic, partial curve, poor fit] | Potency [15]: inconclusive: 18.8 µM [cytotoxic, partial curve, poor fit] | Potency [13]: inconclusive: 13.3 µM [cytotoxic, full curve] | Potency [8]: inconclusive: 13.3 µM [falling, full curve] | Potency [11]: inactive

O=[N+]([O-])c1ccc2ccc3cccc4ccc1c2c34
Potency [1, 18]: inconclusive: 54.9 µM | Potency [2]: inactive | Potency [3]: inconclusive: 54.4 µM [rising, partial curve] | Potency [16]: inconclusive: 21.9 µM [rising, single point] | Potency [11]: inconclusive: 54.9 µM

ClC(Cl)=C(Cl)C(Cl)=C(Cl)Cl
Potency [1, 18]: inactive | Potency [2]: inconclusive: 19.3 µM [rising, single point] | Potency [11]: inconclusive: 0.154 µM [rising, full curve, poor fit]

COC(=O)C(Br)CBr (stereo not drawn)
Potency [1, 18]: inconclusive: 54.9 µM [fluorescent] | Potency [2]: inconclusive: 54.9 µM [cytotoxic, single point] | Potency [3]: inconclusive: 77 µM [rising, single point] | Potency [4]: inactive | Potency [6]: inactive | Potency [11]: inconclusive: 49 µM

CC(Oc1ccc(Cl)cc1Cl)C(=O)O (stereo not drawn)
ratio activity, negative = inhibition ([1]; at 62.6 µM (top of the series)): inactive: 4.87% | ratio activity, negative = inhibition [1, 18]: inconclusive: -18.3% | Potency [15]: inconclusive: 13.8 µM [cytotoxic, full curve, poor fit] | Potency [11]: inactive

CC1C=[C-]C=C1.[C-]#[O+].[C-]#[O+].[C-]#[O+].[Mn]
ratio activity, negative = inhibition [1, 18]: inconclusive: -0.726% | Potency [2]: inactive | Potency [3]: inconclusive: 68.6 µM | Potency [6]: inconclusive: 9.69 µM [falling, partial curve, poor fit] | Potency [15]: inactive | activity change, negative = inhibition [17]: inconclusive: -12.9% | Potency [13]: inconclusive: 0.437 µM [rising, partial curve, poor fit] | viability change, negative = cytotoxic [13]: inconclusive: 35.1% | Potency [12]: inactive | Potency [10]: inconclusive: 24.6 µM [cytotoxic, single point] | Potency [11]: inactive

CCOP(=O)(CN(CCO)CCO)OCC
Potency [1, 18]: inactive | Potency [2]: inactive | activation [3]: inconclusive: -23.2% | Potency [15]: inactive | Potency [11]: inactive
